The text below walks through data of patent US9586962B2, “Disubstituted octahydropyrrolo [3,4-C] pyrroles as orexin receptor modulators” (Janssen Pharmaceutica NV, priority 2011, dated 2017).

Each structure is given as a SMILES string.

The assay addresses human orexin 1 receptor (Homo sapiens (Human), UniProt O43613). The following applies: read-out: OR 1 Ki, radioligand competition binding.
Chain of UniProt O43613 (O43613 whole entry): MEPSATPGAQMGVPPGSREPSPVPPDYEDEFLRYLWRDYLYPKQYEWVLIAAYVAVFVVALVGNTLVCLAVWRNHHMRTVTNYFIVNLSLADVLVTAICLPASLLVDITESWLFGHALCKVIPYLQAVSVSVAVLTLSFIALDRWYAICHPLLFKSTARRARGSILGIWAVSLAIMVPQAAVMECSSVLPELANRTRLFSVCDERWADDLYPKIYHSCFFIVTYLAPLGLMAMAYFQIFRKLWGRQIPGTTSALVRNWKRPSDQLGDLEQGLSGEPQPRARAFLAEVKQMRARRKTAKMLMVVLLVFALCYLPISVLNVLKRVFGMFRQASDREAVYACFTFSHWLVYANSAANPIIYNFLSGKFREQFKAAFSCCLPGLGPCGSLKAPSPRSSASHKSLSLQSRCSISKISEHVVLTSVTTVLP
In the case of `Cc1cc(C)nc(N2CC3CN(C(=O)c4ncccc4C(F)(F)F)CC3C2)n1` (centres unmarked) [Example 413, 2-(4,6-Dimethylpyrimidin-2-yl)-5-{[3-(trifluoromethyl)pyridin-2-yl]carbonyl}octahydropyrrolo[3,4-c]pyrrole], the inhibition constant Ki stood at 10 µM.
Then `CCOc1ccc(C)nc1C(=O)N1CC2CN(c3nc(C)cc(C)n3)CC2C1` (centres unmarked) [Example 414, 2-(4,6-Dimethylpyrimidin-2-yl)-5-[(3-ethoxy-6-methylpyridin-2-yl)carbonyl]octahydropyrrolo[3,4-c]pyrrole], with 10 µM; and `CCOc1ncccc1C(=O)N1CC2CN(c3nc(C)cc(C)n3)CC2C1` (centres unmarked) [Example 415, 2-(4,6-Dimethylpyrimidin-2-yl)-5-[(2-ethoxypyridin-3-yl)carbonyl]octahydropyrrolo[3,4-c]pyrrole], with 9 µM.
As for `Cc1nc(N(C)C)cc(N2CC3CN(C(=O)c4cccc(F)c4-n4nccn4)CC3C2)n1` (centres unmarked) [Example 416, 6-[5-{[3-Fluoro-2-(2H-1,2,3-triazol-2-yl)phenyl]carbonyl}hexahydropyrrolo[3,4-c]pyrrol-2(1H)-yl]-N,N,2-trimethylpyrimidin-4-amine], the Ki was 5 µM.
Then `Cc1nc(N(C)C)cc(N2CC3CN(C(=O)c4ccc(F)cc4-n4nccn4)CC3C2)n1` (centres unmarked) [Example 417, 6-[5-{[4-Fluoro-2-(2H-1,2,3-triazol-2-yl)phenyl]carbonyl}hexahydropyrrolo[3,4-c]pyrrol-2(1H)-yl]-N,N,2-trimethylpyrimidin-4-amine], with 1.01 µM; and `Cc1nc(N(C)C)cc(N2CC3CN(C(=O)c4c(F)cccc4-n4nccn4)CC3C2)n1` (centres unmarked) [Example 418, 6-[5-{[2-Fluoro-6-(2H-1,2,3-triazol-2-yl)phenyl]carbonyl}hexahydropyrrolo[3,4-c]pyrrol-2(1H)-yl]-N,N,2-trimethylpyrimidin-4-amine], with 0.741 µM; and `CCCOc1ccc(C)nc1C(=O)N1CC2CN(c3nc(C)cc(C)n3)CC2C1` (centres unmarked) [Example 419, 2-(4,6-Dimethylpyrimidin-2-yl)-5-[(6-methyl-3-propoxypyridin-2-yl)carbonyl]octahydropyrrolo[3,4-c]pyrrole], with 10 µM.
Then `CCOc1ccc(C)nc1C(=O)N1CC2CN(c3cc(N(C)C)nc(C)n3)CC2C1` (centres unmarked) [Example 420, 6-{5-[(3-Ethoxy-6-methylpyridin-2-yl)carbonyl]hexahydro-pyrrolo[3,4-c]pyrrol-2(1H)-yl}-N,N,2-trimethylpyrimidin-4-amine], with 10 µM.
Consider `Cc1cc(C)nc(N2CC3CN(C(=O)c4nc(C)ccc4-c4ncccn4)CC3C2)n1` (centres unmarked) [Example 421, 2-(4,6-Dimethylpyrimidin-2-yl)-5-[(6-methyl-3-pyrimidin-2-ylpyridin-2-yl)carbonyl]octahydropyrrolo[3,4-c]pyrrole], for which the inhibition constant Ki was 5.92 µM.
As for `Cc1cc(C)nc(N2CC3CN(C(=O)c4nc(C)ccc4-c4ncc(C)o4)CC3C2)n1` (centres unmarked) [Example 422, 2-(4,6-Dimethylpyrimidin-2-yl)-5-{[6-methyl-3-(5-methyl-1,3-oxazol-2-yl)pyridin-2-yl]carbonyl}octahydropyrrolo[3,4-c]pyrrole], the figure is 10 µM; as for `COc1ccc(-n2nccn2)c(C(=O)N2CC3CN(c4cc(N(C)C)nc(C)n4)CC3C2)c1` (centres unmarked) [Example 423, 6-[5-{[5-Methoxy-2-(2H-1,2,3-triazol-2-yl)phenyl]carbonyl}hexahydropyrrolo[3,4-c]pyrrol-2(1H)-yl]-N,N,2-trimethylpyrimidin-4-amine], 2.86 µM; as for `CCCOc1ccc(C)nc1C(=O)N1CC2CN(c3cc(N(C)C)nc(C)n3)CC2C1` (centres unmarked) [Example 424, N,N,2-Trimethyl-6-{5-[(6-methyl-3-propoxypyridin-2-yl)carbonyl]hexahydropyrrolo[3,4-c]pyrrol-2(1H)-yl}pyrimidin-4-amine], 10 µM.
For the compound `Cc1nc(N(C)C)cc(N2CC3CN(C(=O)c4cc(F)ccc4-c4ncccn4)CC3C2)n1` (centres unmarked) [Example 425, 6-{5-[(5-Fluoro-2-pyrimidin-2-ylphenyl)carbonyl]hexahydropyrrolo[3,4-c]pyrrol-2(1H)-yl}-N,N,2-trimethylpyrimidin-4-amine], the Ki was determined as 1.24 µM.
Then `Cc1nc(N(C)C)cc(N2CC3CN(C(=O)c4c(F)cccc4-c4ncccn4)CC3C2)n1` (centres unmarked) [Example 426, 6-{5-[(2-Fluoro-6-pyrimidin-2-ylphenyl)carbonyl]hexahydropyrrolo[3,4-c]pyrrol-2(1H)-yl}-N,N,2-trimethylpyrimidin-4-amine], with 0.166 µM.
As for `Cc1nc(N(C)C)cc(N2CC3CN(C(=O)c4cccc(F)c4-c4ncccn4)CC3C2)n1` (centres unmarked) [Example 427, 6-{5-[(3-Fluoro-2-pyrimidin-2-ylphenyl)carbonyl]hexahydropyrrolo[3,4-c]pyrrol-2(1H)-yl}-N, N,2-trimethylpyrimidin-4-amine], the figure is 1.26 µM; as for `Cc1ccc(-c2ncccn2)c(C(=O)N2CC3CN(c4cc(N(C)C)nc(C)n4)CC3C2)n1` (centres unmarked) [Example 428, N,N,2-Trimethyl-6-{5-[(6-methyl-3-pyrimidin-2-ylpyridin-2-yl)carbonyl]hexahydropyrrolo[3,4-c]pyrrol-2(1H)-yl}pyrimidin-4-amine], 3.16 µM.
Then `Cc1ccc(-c2ncc(C)o2)c(C(=O)N2CC3CN(c4cc(N(C)C)nc(C)n4)CC3C2)n1` (centres unmarked) [Example 429, N,N,2-Trimethyl-6-[5-{[6-methyl-3-(5-methyl-1,3-oxazol-2-yl)pyridin-2-yl]carbonyl}hexahydropyrrolo[3,4-c]pyrrol-2(1H)-yl]pyrimidin-4-amine], with 9 µM; and `CCCOc1ccc(C)cc1C(=O)N1CC2CN(c3cc(N(C)C)nc(C)n3)CC2C1` (centres unmarked) [Example 430, N,N,2-Trimethyl-6-{5-[(5-methyl-2-propoxyphenyl)carbonyl]hexahydropyrrolo[3,4-c]pyrrol-2(1H)-yl}pyrimidin-4-amine], with 5 µM.
In the case of `Cc1cc(C)nc(N2CC3CN(C(=O)c4cccc(F)c4-c4nnc[nH]4)CC3C2)n1` (centres unmarked) [Example 432, 2-(4,6-Dimethylpyrimidin-2-yl)-5-{[3-fluoro-2-(1H-1,2,4-triazol-5-yl)phenyl]carbonyl}octahydropyrrolo[3,4-c]pyrrole], the inhibition constant Ki came to 3.09 µM.
`Cc1cc(C)nc(N2CC3CN(C(=O)c4ccccc4-c4cn(Cc5ccccc5)nn4)CC3C2)n1` (centres unmarked) [Example 434, 2-{[2-(1-Benzyl-1H-1,2,3-triazol-4-yl)phenyl]carbonyl}-5-(4,6-dimethylpyrimidin-2-yl)octahydropyrrolo[3,4-c]pyrrole]: the inhibition constant Ki worked out at 1.52 µM.
In the case of `COc1ccc(C(=O)N2CC3CN(c4nc(C)cc(CO)n4)CC3C2)c(-n2nccn2)c1` (centres unmarked) [Example 435, {2-[5-{[4-Methoxy-2-(2H-1,2,3-triazol-2-yl)phenyl]carbonyl}hexahydropyrrolo[3,4-c]pyrrol-2(1H)-yl]-6-methylpyrimidin-4-yl}methanol], the Ki came to 3.97 µM.
Then `Cc1cc(CO)nc(N2CC3CN(C(=O)c4cccc(F)c4-c4nc(C)no4)CC3C2)n1` (centres unmarked) [Example 436, {2-[5-{[3-Fluoro-2-(3-methyl-1,2,4-oxadiazol-5-yl)phenyl]carbonyl}hexahydropyrrolo[3,4-c]pyrrol-2(1H)-yl]-6-methylpyrimidin-4-yl}methanol], with 2.44 µM.
As to `Cc1cc(C)nc(N2CC3CN(C(=O)c4c(F)cccc4-c4nnc[nH]4)CC3C2)n1` (centres unmarked) [Example 437, 2-(4,6-Dimethylpyrimidin-2-yl)-5-{[2-fluoro-6-(1H-1,2,4-triazol-5-yl)phenyl]carbonyl}octahydropyrrolo[3,4-c]pyrrole], the Ki came to 10 µM.
For the compound `Cc1cc(C)nc(N2CC3CN(C(=O)c4nc(C)ccc4-n4ccnn4)CC3C2)n1` (centres unmarked) [Example 439, 2-(4,6-Dimethylpyrimidin-2-yl)-5-{[6-methyl-3-(1H-1,2,3-triazol-1-yl)pyridin-2-yl]carbonyl}octahydropyrrolo[3,4-c]pyrrole], the Ki came out at 10 µM.
As for `Cc1noc(-c2c(F)cccc2C(=O)N2CC3CN(c4ncc(F)c(C)n4)CC3C2)n1` (centres unmarked) [Example 440, 2-{[3-Fluoro-2-(3-methyl-1,2,4-oxadiazol-5-yl)phenyl]carbonyl}-5-(5-fluoro-4-methylpyrimidin-2-yl)octahydropyrrolo[3,4-c]pyrrole], the figure is 5 µM; as for `Cc1nc(N2CC3CN(C(=O)c4ncc(Cl)cc4-n4nccn4)CC3C2)nc(C)c1C` (centres unmarked) [Example 442, 2-{[5-Chloro-3-(2H-1,2,3-triazol-2-yl)pyridin-2-yl]carbonyl}-5-(4,5,6-trimethylpyrimidin-2-yl)octahydropyrrolo[3,4-c]pyrrole], 1.13 µM.
As for `COc1cnc(C(=O)N2CC3CN(c4nc(C)c(C)c(C)n4)CC3C2)c(-n2nccn2)c1` (centres unmarked) [Example 444, 2-{[5-Methoxy-3-(2H-1,2,3-triazol-2-yl)pyridin-2-yl]carbonyl}-5-(4,5,6-trimethylpyrimidin-2-yl)octahydropyrrolo[3,4-c]pyrrole], the figure is 2.35 µM; as for `Cc1ccc(-c2ncccn2)c(C(=O)N2CC3CN(c4nc(C)c(C)c(C)n4)CC3C2)n1` (centres unmarked) [Example 445, 2-[(6-Methyl-3-pyrimidin-2-ylpyridin-2-yl)carbonyl]-5-(4,5,6-trimethylpyrimidin-2-yl)octahydropyrrolo[3,4-c]pyrrole], 1.1 µM.
Then `Cc1cc(C)nc(N2CC3CN(C(=O)c4ccc(OC(F)F)cc4-n4nccn4)CC3C2)n1` (centres unmarked) [Example 446, 2-{[4-(Difluoromethoxy)-2-(2H-1,2,3-triazol-2-yl)phenyl]carbonyl}-5-(4,6-dimethylpyrimidin-2-yl)octahydropyrrolo[3,4-c]pyrrole], with 6.71 µM.
With `CCOc1ncccc1C(=O)N1CC2CN(c3cnc4cc(F)c(F)cc4n3)CC2C1` (centres unmarked) [Example 447, 2-{5-[(2-Ethoxypyridin-3 yl)carbonyl]hexahydropyrrolo[3,4-c]pyrrol-2(1H)-yl}-6,7-difluoroquinoxaline], the Ki turned out to be 5.9 µM.
As for `CCOc1ncccc1C(=O)N1CC2CN(c3ncc4cc(F)ccc4n3)CC2C1` (centres unmarked) [Example 448, 2-{5-[(2-Ethoxypyridin-3-yl)carbonyl]hexahydropyrrolo[3,4-c]pyrrol-2(1H)-yl}-6-fluoroquinazoline], the figure is 4.4 µM; as for `O=C(c1cccc(F)c1I)N1CC2CN(c3cnc4cc(F)c(F)cc4n3)CC2C1` (centres unmarked) [Example 449, 6,7-Difluoro-2-{5-[(3-fluoro-2-iodophenyl)carbonyl]hexahydropyrrolo[3,4-c]pyrrol-2(1H)-yl}quinoxaline], 1.5 µM.
